Measured values as given in patent publication US10487153B2, “Carbonic anhydrase IX-specific antibodies and uses thereof” (National Research Council of Canada, priority 2015, dated 2019).
Read-outs that look alike come from different tables or passages of the source.

What was measured:
[1] = target: T1, human CA-XII extracellular domain (ECD) (Homo sapiens, UniProt O43570); test: CA-XII binding by SPR; details: 100 nM of human CA-XII ECD
T1 construct: SPR measurements using 100 nM of human CA-XII extracellular domain (ECD)
Procedure: (§1) A ProteON GLC chip was activated with sEDS and sNHS prior to immobilizing approximately 4000 RUs of Goat anti-human Fc (Jackson InnumoResearch) via amine (lysine) coupling in 10 mM acetate buffer pH 4.5. This surface was then used to capture c2C7 and c12H8 on different flow cells. Recombinantly-expressed (CHO cells) SEC purified dimeric CA-IX extracellular domain (ECD) from human, mouse, dog and cynomolgus monkey and human CA-XII, were prepared in PBS with 0.02% Polysorbate-20. These dilutions were then flowed over the captured antibodies at 5 different concentrations from 100 nM to 1.23 nM using a flow rate 50 μL/min. […] Kinetic association and dissociation rate constants were determined from non-linear fitting of the observed responses to a 1:1 binding mocel. These rate constants were used to calculate the binding constant KD.

rhCA-XIV = target: T2, rhCA-XIV (Homo sapiens, UniProt Q9ULX7); test: Cross-reactivity determination by SPR; format: binding; details: 100 nM analyte
T2 construct: purchased Sino Biologics Inc
Procedure: (§2) CA proteins for the analyte injection were purchased from Sino Biologics Inc.; the proteins were reconstituted as recommended by the manufacturer and diluted to 100 nM in SPR running buffer for binding analysis.

rhCA-IV = target: T3, rhCA-IV (Homo sapiens, UniProt P22748); test: Cross-reactivity determination by SPR; format: binding; details: 100 nM analyte
T3 construct: purchased Sino Biologics Inc
Procedure: as §2

rhCA-XII = target: T4, rhCA-XII (Homo sapiens, UniProt O43570); test: Cross-reactivity determination by SPR; format: binding; details: 100 nM analyte
T4 construct: purchased Sino Biologics Inc
Procedure: as §2

[2] = tested on: Human-induced pluripotent (iPS) cardiomyocytes; test: Cardiotoxicity in iPS cardiomyocytes (CellTiter-Glo); format: cell-based; details: 10 nM; 3 and 5 days post-treatment; compared to non-specific human IgG1 negative control and corresponding ADC
Procedure: Human-induced pluripotent (iPS) cardiomyocytes were obtained from Cellular Dynamics Inc. iPS cardiomyocytes (iCells) were thawed and cultured according to the manufacturers instructions. Briefly, cells were thawed, resuspended in iCell plating media, seeded in 0.1% gelatin-coated 96-well plates (15,000 cells/well) and maintained in a humidified incubator with 5% CO2 at 37° C. for 4 hours. Cells were then washed to remove debris and the plating media was replaced with iCell Maintenance Media which was then changed every other day during the course of the experiment. […] A non-specific negative control human IgG1 and the corresponding DM1-conjugated ADC were also used for treated the cells using the same protocol. Cell viability was measured 3 and 5 days post-treatment using the CellTiter-Glo Luminescent cell viability Assay (Promega, Madison, Wis.). Briefly, the plates and reagents were equilibrated to room temperature for 30 minutes. A volume of CellTiter-Glo reagent was added to the volume of cell culture medium present in each well and mixed on an orbital shaker for 45 minutes. The luminescence was then recorded using an EnVision plate reader (PerkinElmer Inc.)

rmCA-IX = target: T5, rmCA-IX (Mus musculus, UniProt Q8VHB5); test: Cross-reactivity determination by SPR; format: binding, murine; details: 100 nM analyte
T5 construct: purchased Sino Biologics Inc
Procedure: as §2

[3] = target: T6, native peptides covering the hCA-IX ECD (Homo sapiens, UniProt Q16790); format: binding; set-up: key: −, no binding; +, binding
T6 construct: expressed in transfected cells; host or cells: yeast cells (surface display, whole yeast cell ELISA)
Procedure: (§3) The hCA-IX fragments covering the entire hCA-IX ECD (FIG. 13A) or the PG domain alone (FIG. 13B) were expressed as fusion proteins (Aga2-HA-(CA-IX)-MYC (pPNL6 vector) or (CA-IX)-Aga2-MYC (pPNL200 vector)) on the yeast cell surface. The YSD vectors (pPNL6 and pPNL200) were from The Pacific Northwest National Laboratory, USA. […] The binding of the mAb to yeast cells was performed using a whole yeast cell ELISA. […] The binding of mAb to denatured yeast cells was normalized to the anti-MYC signal. The ratio of normalized anti-CA-IX signals of each mAb on native versus denatured hCA-IX peptide was thus indicative of the conformational nature of the epitope. In the native hCA-IX experiments, the commercial M75 mAb was used as a positive control; the epitope of this mAb is known (Zavada et al., 2000) and is located in the hCA-IX PG domain.

[4] = target: T7, denatured peptides covering the hCA-IX ECD (Homo sapiens, UniProt Q16790); format: binding; set-up: key: −, no binding; +, binding
T7 construct: expressed in transfected cells; host or cells: yeast cells (surface display, whole yeast cell ELISA)
Procedure: as §3

[5] = tested on: denatured peptides covering the hCA-IX ECD; format: binding, human; set-up: key: −, no binding; +, binding
Procedure: as §3

[6] = tested on: native peptides covering the hCA-IX ECD; format: binding, human; set-up: key: −, no binding; +, binding
Procedure: as §3

[7] = target: T8, dimeric CA-IX extracellular domain (ECD) from mouse (Mus musculus, UniProt Q8VHB5); test: CA-IX species binding by SPR; details: CA-IX ECD 100 nM to 1.23 nM, read-out: Specific binding, Mouse
T8 construct: SEC purified dimeric CA-IX extracellular domain (ECD) from human, mouse, dog and cynomolgus monkey; made in house; host or cells: CHO cells
Procedure: as §1

[8] = target: dimeric CA-IX extracellular domain (ECD) from cynomolgus monkey; test: CA-IX species binding by SPR; details: CA-IX ECD 100 nM to 1.23 nM, read-out: Specific binding, Cynomolgus
Procedure: as §1

[9] = target: dimeric CA-IX extracellular domain (ECD) from dog; test: CA-IX species binding by SPR; details: CA-IX ECD 100 nM to 1.23 nM, read-out: Specific binding, Dog
Procedure: as §1

rhCA-IX ECD Dimer = rhCA-IX ECD Dimer (Homo sapiens, UniProt Q16790); details: recombinantly expressed Abs
Procedure: The change in response due to binding was measured during this antigen injection phase followed by injection of running buffer to measure dissociation of the complex formed. Firstly, one buffer injection for 30 s at 100 μL/min in the ligand direction was used to stabilize the baseline. For each antibody variant capture, non-purified variants in cell-culture media were diluted to 4% in PBST. One to five variants or controls were simultaneously injected in individual ligand channels for 240 s at flow 25 μL/min. […] The first ligand channel was left empty to use as a blank control if required. This capture step was immediately followed by two buffer injections in the analyte direction to stabilize the baseline.
Sensorgrams were aligned and double-referenced using the buffer blank injection and interspots, and the resulting sensorgrams were analyzed using ProteOn Manager software v3.1. The double-referenced sensorgrams were fit to the 1:1 binding model to determine the rate constants for association and dissociation (ka and kd) and the corresponding affinity (KD).

[10] = target: dimeric CA-IX extracellular domain (ECD) from human (Homo sapiens, UniProt Q16790); test: CA-IX species binding by SPR; details: CA-IX ECD 100 nM to 1.23 nM, read-out: Specific binding, Human
Procedure: as §1, with “This surface was then used to capture c2C7 and c12H8 on different flow cells.” left out, “Polysorbate-20.” for “Polysorbate-20. These dilutions were then flowed over the captured antibodies at 5 different concentrations from 100 nM to 1.23 nM using a flow rate 50 μL/min.”

[11] = tested on: native peptides covering the hCA-IX ECD PG domain; format: binding, human; set-up: key: −, no binding; +, binding; details: PNL6 Aga2-HA-X-MYC; clone 15 A + B; Plasmid Ctrl, no peptide
Procedure: as §3

[12] = target: T9, native peptides covering the hCA-IX ECD PG domain (Homo sapiens, UniProt Q16790); format: binding; set-up: key: −, no binding; +, binding; details: native PG domain, PNL6
T9 construct: encompassing aa 37-140 of the native hCA-IX PG domain; expressed in transfected cells; host or cells: yeast cells (surface display)
Procedure: as §3

[13] = PNL6 Aga2-HA-CA9-MYC, clone 1A, fragment 1, aa 53-111, PG
[14] = PNL6 Aga2-HA-CA9-MYC, clone 4A, fragment 4, aa 135-391, CA
[15] = PNL6 Aga2-HA-CA9-MYC, clone 5A, fragment 5, aa 112-391, +CA
[16] = PNL6 Aga2-HA-CA9-MYC, clone 6B, fragment 6, aa 135-414, CA+
[17] = PNL6 Aga2-HA-CA9-MYC, clone 7B, fragment 7, aa 112-414, +CA+
[18] = PNL200 CA9-Aga2-MYC, clone 12B, fragment 1, aa 53-111, PG
[19] = PNL200 CA9-Aga2-MYC, clone 15B, fragment 4, aa 135-391, CA
[20] = PNL200 CA9-Aga2-MYC, clone 16B, fragment 5, aa 112-391, +CA
[21] = PNL200 CA9-Aga2-MYC, clone 17B, fragment 6, aa 135-414, CA+
[22] = PNL200 CA9-Aga2-MYC, clone 18A, fragment 7, aa 112-414, +CA+
[23] = PNL6 Aga2-HA-CA9-MYC, clone 3A, fragment 3, aa 1-136, SP+PG+
[24] = PNL6 Aga2-HA-X-MYC, clone 11B, Plasmid Ctrl, Neg Ctrl
[25] = PNL6 series, EBY100, no plasmid, Strain Ctrl, Neg Ctrl
[26] = PNL200 CA9-Aga2-MYC, clone 14A, fragment 3, aa 1-136, SP+PG+
[27] = PNL200 X-Aga2-MYC, clone 22A, Plasmid Ctrl, Neg Ctrl
[28] = PNL200 series, EBY100, no plasmid, Strain Ctrl, Neg Ctrl

T3 sequence (P22748 19-284): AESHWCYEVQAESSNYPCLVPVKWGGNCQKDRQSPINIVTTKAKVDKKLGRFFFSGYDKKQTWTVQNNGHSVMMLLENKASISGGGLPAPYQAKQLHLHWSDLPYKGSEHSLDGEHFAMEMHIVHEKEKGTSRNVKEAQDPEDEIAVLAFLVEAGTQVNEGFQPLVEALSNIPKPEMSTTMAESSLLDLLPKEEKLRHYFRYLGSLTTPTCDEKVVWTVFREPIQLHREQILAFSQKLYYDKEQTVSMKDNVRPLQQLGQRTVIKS
T1 sequence (O43570 25-301 limits assumed): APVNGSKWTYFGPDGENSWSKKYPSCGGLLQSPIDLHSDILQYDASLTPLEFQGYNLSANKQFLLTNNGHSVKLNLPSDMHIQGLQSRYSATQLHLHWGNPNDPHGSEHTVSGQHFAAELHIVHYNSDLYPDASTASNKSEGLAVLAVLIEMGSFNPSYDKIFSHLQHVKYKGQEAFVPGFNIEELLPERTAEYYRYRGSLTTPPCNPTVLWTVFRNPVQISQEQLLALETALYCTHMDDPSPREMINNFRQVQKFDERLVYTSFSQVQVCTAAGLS
T8 sequence (Q8VHB5 32-390 limits assumed): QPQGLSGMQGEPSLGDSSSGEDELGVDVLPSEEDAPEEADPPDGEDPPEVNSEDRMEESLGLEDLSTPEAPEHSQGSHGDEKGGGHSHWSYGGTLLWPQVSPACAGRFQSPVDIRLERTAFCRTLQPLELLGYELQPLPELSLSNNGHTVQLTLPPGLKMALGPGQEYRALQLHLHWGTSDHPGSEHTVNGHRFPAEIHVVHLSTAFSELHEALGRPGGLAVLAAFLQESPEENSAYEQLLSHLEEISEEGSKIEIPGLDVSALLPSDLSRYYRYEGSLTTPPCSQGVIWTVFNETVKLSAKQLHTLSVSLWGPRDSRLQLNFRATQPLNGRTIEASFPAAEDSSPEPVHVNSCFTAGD
T2 sequence (Q9ULX7 16-337): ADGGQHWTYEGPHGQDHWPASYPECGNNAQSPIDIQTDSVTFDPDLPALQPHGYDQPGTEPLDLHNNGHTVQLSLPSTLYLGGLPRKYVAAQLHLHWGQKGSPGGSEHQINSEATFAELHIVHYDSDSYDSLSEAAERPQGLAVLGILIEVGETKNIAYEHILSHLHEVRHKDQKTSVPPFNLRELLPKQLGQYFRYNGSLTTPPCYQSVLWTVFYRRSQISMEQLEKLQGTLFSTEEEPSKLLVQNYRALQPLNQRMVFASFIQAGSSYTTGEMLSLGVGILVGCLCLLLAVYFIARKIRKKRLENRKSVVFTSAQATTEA
T4 sequence (O43570 25-354): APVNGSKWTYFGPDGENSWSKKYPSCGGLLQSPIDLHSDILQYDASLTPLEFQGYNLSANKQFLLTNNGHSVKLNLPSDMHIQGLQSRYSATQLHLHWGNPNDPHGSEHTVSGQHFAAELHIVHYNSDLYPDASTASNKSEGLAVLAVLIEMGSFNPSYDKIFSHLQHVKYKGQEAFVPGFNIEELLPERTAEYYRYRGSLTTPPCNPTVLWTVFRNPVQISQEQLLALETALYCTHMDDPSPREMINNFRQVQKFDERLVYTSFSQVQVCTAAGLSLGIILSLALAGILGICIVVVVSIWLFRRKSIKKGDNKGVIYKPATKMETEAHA
T5 sequence (Q8VHB5 32-437): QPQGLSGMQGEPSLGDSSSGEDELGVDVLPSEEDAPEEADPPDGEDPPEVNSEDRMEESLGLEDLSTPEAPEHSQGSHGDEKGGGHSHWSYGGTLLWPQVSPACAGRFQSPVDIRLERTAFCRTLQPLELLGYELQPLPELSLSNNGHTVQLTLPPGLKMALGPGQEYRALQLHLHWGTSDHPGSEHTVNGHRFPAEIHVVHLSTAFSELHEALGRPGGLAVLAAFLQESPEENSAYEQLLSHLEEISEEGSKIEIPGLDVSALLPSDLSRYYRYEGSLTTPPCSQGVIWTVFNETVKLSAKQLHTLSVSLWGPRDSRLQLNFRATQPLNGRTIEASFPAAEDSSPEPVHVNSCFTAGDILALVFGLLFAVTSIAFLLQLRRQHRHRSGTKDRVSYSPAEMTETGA

B1: c12H8: chimeric 12H8, human kappa1 light chain and human IgG1 heavy chain; SEQ ID NO:29 and 30 (protein)
light: DVVMTQTPLTLSVTIGQPASISCKSSQSLLDSDGKTYLNWLLQRPGQSPKRLIYLVSKLDSGVPDRFTGSGSGTDFTLKISRVEAEDLGVYYCCQGTHFPWTFGGGTKLEIKRTVAAPSVFIFPPSDEQLKSGTASVVCLLNNFYPREAKVQWKVDNALQSGNSQESVTEQDSKDSTYSLSSTLTLSKADYEKHKVYACEVTHQGLSSPVTKSFNRGEC
heavy: QIQLVQSGPELKKPGETVKISCKASGYTFTNYGMNWVQQAPGKGLKWMGWINTYTGEPTYADDFKGRFAFSLETSASTAYLQINNLKNEDMATYFCARGGIATPTSYWGQGTTLTVSS[letters of human IgG1 constant region omitted]
modifications: Chimeric 12H8 Light Chain; Chimeric 12H8 Heavy chain
- binding to human CA-XII ECD [1]: no binding
- binding to rhCA-XIV (rhCA-XIV): no binding was detected
- binding to rhCA-IV (rhCA-IV): no binding was detected
- binding to rhCA-XII (rhCA-XII): no binding was detected
- impact on cell viability [2]: neither c2C7, c12H8 or their corresponding DM1 conjugate ADCs had any significant impact
- binding to rmCA-IX (rmCA-IX): no binding was detected
- Anti-hCA-IX antibody binding intensity [3, 13]: −
- Anti-hCA-IX antibody binding intensity [3, 14]: −
- Anti-hCA-IX antibody binding intensity [3, 15]: −
- Anti-hCA-IX antibody binding intensity [3, 16]: −
- Anti-hCA-IX antibody binding intensity [3, 17]: −
- Anti-hCA-IX antibody binding intensity [3, 18]: −
- Anti-hCA-IX antibody binding intensity [3, 19]: −
- Anti-hCA-IX antibody binding intensity [3, 20]: −
- Anti-hCA-IX antibody binding intensity [3, 21]: −
- Anti-hCA-IX antibody binding intensity [3, 22]: −
- Anti-hCA-IX antibody binding intensity [4, 13]: +
- Anti-hCA-IX antibody binding intensity [4, 14]: −
- Anti-hCA-IX antibody binding intensity [4, 15]: −
- Anti-hCA-IX antibody binding intensity [4, 16]: −
- Anti-hCA-IX antibody binding intensity [4, 17]: −
- Anti-hCA-IX antibody binding intensity [4, 18]: −
- Anti-hCA-IX antibody binding intensity [4, 19]: −
- Anti-hCA-IX antibody binding intensity [4, 20]: −
- Anti-hCA-IX antibody binding intensity [4, 21]: −
- Anti-hCA-IX antibody binding intensity [4, 22]: −
- Anti-hCA-IX antibody binding intensity [5, 23]: +
- Anti-hCA-IX antibody binding intensity [5, 24]: −
- Anti-hCA-IX antibody binding intensity [5, 25]: −
- Anti-hCA-IX antibody binding intensity [5, 26]: −
- Anti-hCA-IX antibody binding intensity [5, 27]: −
- Anti-hCA-IX antibody binding intensity [5, 28]: −
- Anti-hCA-IX antibody binding intensity [6, 23]: +
- Anti-hCA-IX antibody binding intensity [6, 24]: −
- Anti-hCA-IX antibody binding intensity [6, 25]: −
- Anti-hCA-IX antibody binding intensity [6, 26]: +
- Anti-hCA-IX antibody binding intensity [6, 27]: −
- Anti-hCA-IX antibody binding intensity [6, 28]: −
- Kd [7]: > 20 nM
- Kd [8]: < 20 nM
- Kd [9]: > 20 nM
- ka (rhCA-IX ECD Dimer): 5.88 × 10^5
- kd (rhCA-IX ECD Dimer): 5.76 × 10^−4
- Kd [10]: < 20 nM
- Anti-hCA-IX antibody binding intensity [11]: −
- Anti-hCA-IX antibody binding intensity ([12]; fragment 2, 15 aa, aa 47-61): −
- Anti-hCA-IX antibody binding intensity ([12]; fragment 3, 15 aa, aa 57-71): −
- Anti-hCA-IX antibody binding intensity ([12]; fragment 4, 15 aa, aa 67-81): −
- Anti-hCA-IX antibody binding intensity ([12]; fragment 5, 15 aa, aa 77-91): −
- Anti-hCA-IX antibody binding intensity ([12]; fragment 6, 15 aa, aa 87-101): −
- Anti-hCA-IX antibody binding intensity ([12]; fragment 7, 15 aa, aa 97-111): −
- Anti-hCA-IX antibody binding intensity ([12]; fragment 8, 15 aa, aa 107-121): −
- Anti-hCA-IX antibody binding intensity ([12]; fragment 9, 15 aa, aa 117-131): −
- Anti-hCA-IX antibody binding intensity ([12]; fragment 10, 15 aa, aa 126-140): −
- Anti-hCA-IX antibody binding intensity ([12]; fragment 12, 45 aa, aa 67-111): −
- Anti-hCA-IX antibody binding intensity ([12]; fragment 13, 34 aa, aa 107-140): −
